The values that follow come from paper PMC6451091.

Some of the results follow. For part of these data: At the low end of the ranking, values are background and their order means little. For part of these data: The protein was read in a cell extract, so binding may be indirect.

The target in one test is PU.1 (IVT) (UniProt P17947). Put plainly: protein-binding microarray (PBM). The following applies: 20 mM HEPES pH 7.9, 100 mM NaCl, 1 mM DTT, 0.2 mg/mL BSA, 0.02% Triton X-100, 2% milk, 0.4 mg/mL salmon testes DNA; 1 h; temperature not stated; high values mean tight binding; double strand, one strand shown; sequences stand for … in GCCTAGCAC…GTGCTAGGTCTTGATTCGCTTGACGCTGCTG
Consider TGGCAGAAGAAGTGAAACTA, for which the binding signal is 0.713 z-score.

Regarding CAAAAGAGGAAGAGAAACTG, the binding signal turned out to be 4.72 z-score.

For the sequence AGAAAGTGGAAGTGAAACTG, the binding signal is 3.67 z-score.

In turn, TGAGAGGAGAAGTGAGACCT came in with a binding signal of 1.06 z-score.

As to AAAAAAGGGAAATGAAAGTA, the binding signal worked out at 4.95 z-score.

AAAAAAAGGAAATGAAACTA showed a binding signal of 3.74 z-score.

The sequence TGATACAGGAAGTGAAACCA came in with a binding signal of 4.18 z-score.

The target of another test is T1, FLI1 (endogenous, THP-1 nuclear extract) (UniProt Q01543).
T1 sequence: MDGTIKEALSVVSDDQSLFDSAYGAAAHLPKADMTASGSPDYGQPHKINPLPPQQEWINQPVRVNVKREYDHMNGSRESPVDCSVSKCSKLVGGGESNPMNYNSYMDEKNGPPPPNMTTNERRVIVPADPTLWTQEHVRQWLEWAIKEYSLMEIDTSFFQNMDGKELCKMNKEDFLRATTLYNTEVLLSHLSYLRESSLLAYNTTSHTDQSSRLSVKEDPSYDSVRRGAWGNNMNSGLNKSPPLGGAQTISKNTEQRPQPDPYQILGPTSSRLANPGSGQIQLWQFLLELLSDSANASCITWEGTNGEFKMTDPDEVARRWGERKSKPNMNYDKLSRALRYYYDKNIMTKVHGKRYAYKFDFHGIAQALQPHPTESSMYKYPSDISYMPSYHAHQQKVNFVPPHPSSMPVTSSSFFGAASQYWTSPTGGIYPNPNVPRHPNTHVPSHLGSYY
Put plainly: nuclear extract protein-binding microarray (nextPBM). The following applies: 20 mM HEPES pH 7.9, 100 mM NaCl, 1 mM DTT, 0.2 mg/mL BSA, 0.02% Triton X-100, 2% milk, 0.4 mg/mL salmon testes DNA; 1 h; temperature not stated; high values mean tight binding; double strand, one strand shown; sequences stand for … in GCCTAGCAC…GTGCTAGGTCTTGATTCGCTTGACGCTGCTG
For CTGCCAGGGAAGTGAAAGCA, the binding signal was 0.671 z-score.

As to GCTAAGAGGAACTGAAAGCT, the binding signal was determined as 1.37 z-score.

Turning to CTGGCAGGGAACTGCAACTC, the binding signal was -0.465 z-score.

TCCAGGAGGAACTGAAAGCT returned a binding signal of 0.687 z-score.

On to GATAAGAGGAACTGAAAGAT, for which the binding signal turned out to be 1.52 z-score.

Take GAAAAGAGGAAGGGAAACTG: the binding signal is 2.53 z-score.

On to TGAAACAGGAAGTGACACCA, for which the binding signal worked out at 5.42 z-score.

In the case of TAAAGGAGGAACTGACACCA, the binding signal was 1.2 z-score.

Take ATAAAAAGGAAATGAAAGTA: the binding signal was determined as 2.24 z-score.

Consider CTGGCAGGGAACTGACACTC, for which the binding signal was -0.396 z-score.

GTTAAGAGGAACTGAAAGCT registered a binding signal of 0.989 z-score.

GTGGTAGGGAAGTGAAACTG came in with a binding signal of 2.22 z-score.

As for GATAAGAGGAACTGAAAGCA, the binding signal is 1.66 z-score.

Sequence GATAAGAGGATCTGAAAGCT displayed a binding signal of 0.0218 z-score.

On to TGGCAGAGGAAGTCAAACTA, for which the binding signal came to 2.21 z-score.

Sequence TGAAAGAGGAACCGAAACTC had a binding signal of 2.69 z-score.

The sequence AAGAAAGAGAACTGAAAGTA gave a binding signal of 0.344 z-score.

AACATGAGGAACTGAAACTG yielded a binding signal of 1.55 z-score.

In turn, TGGCGGAGGAAGTGAAACTA gave a binding signal of 3.26 z-score.

Turning to TAAAGGAGGTACTGAAACCA, the binding signal was -0.127 z-score.

On to TGAGAGGTGAAGTGAAACCT, for which the binding signal is -0.488 z-score.

Take TTTTTGAGGAACTGAAACTC: the binding signal was determined as 3.05 z-score.

The sequence TGGCAGAGGAAATGAAACTA displayed a binding signal of 2.61 z-score.

TGGCAGAGGAAGTGCAACTA came in with a binding signal of 2.49 z-score.

Consider TAAGAGGAGAAGTGAAACCT, for which the binding signal worked out at 0.789 z-score.

The sequence AAAAAAAGGAAATGAGAGTA came in with a binding signal of 2.29 z-score.

AAAAAGAGGAAGAGAAACTG: the binding signal is 2.81 z-score.

For the sequence TGGCCGAGGAAGTGAAACTA, the binding signal is 1.66 z-score.

For the sequence GTGCAAAGGAAGTGAAACTA, the binding signal is 2.72 z-score.

In turn, GATAAGAGGAACTGTAAGCT returned a binding signal of 1.24 z-score.

For the sequence AAAAGGAGGAAGCGAAACTC, the binding signal stood at 2.65 z-score.

Regarding TAAAGCAGGAACTGAAACCA, the binding signal came out at 1.8 z-score.

In turn, CTGCCAGGGAGGTGAAAGCA gave a binding signal of -0.0494 z-score.

In turn, TGGCAGAAGAAGTGAAACTA displayed a binding signal of -0.341 z-score.

As for CAAAAGAGGAAGAGAAACTG, the binding signal came to 2.24 z-score.

AGAAAGTGGAAGTGAAACTG gave a binding signal of 2.91 z-score.

TGAGAGGAGAAGTGAGACCT had a binding signal of -0.262 z-score.

Sequence AAAAAAGGGAAATGAAAGTA came in with a binding signal of 2.74 z-score.

AAAAAAAGGAAATGAAACTA: the binding signal stood at 2.99 z-score.

The sequence TGATACAGGAAGTGAAACCA displayed a binding signal of 4.99 z-score.

Another test relates to PU.1 (endogenous, THP-1 nuclear extract) + IRF8 (endogenous, THP-1 nuclear extract). The test is described as above. The following applies: 20 mM HEPES pH 7.9, 100 mM NaCl, 1 mM DTT, 0.2 mg/mL BSA, 0.02% Triton X-100, 2% milk, 0.4 mg/mL salmon testes DNA; 1 h; temperature not stated; high values mean tight binding; double strand, one strand shown; sequences stand for … in GCCTAGCAC…GTGCTAGGTCTTGATTCGCTTGACGCTGCTG
As to CTGCCAGGGAAGTGAAAGCA, the binding signal turned out to be 4.44 z-score.

As for GCTAAGAGGAACTGAAAGCT, the binding signal turned out to be 3.67 z-score.

With CTGGCAGGGAACTGCAACTC, the binding signal is 1.4 z-score.

On to TCCAGGAGGAACTGAAAGCT, for which the binding signal worked out at 1.97 z-score.

Turning to GATAAGAGGAACTGAAAGAT, the binding signal is 2.42 z-score.

With GAAAAGAGGAAGGGAAACTG, the binding signal was determined as 9.67 z-score.

As for TGAAACAGGAAGTGACACCA, the binding signal was 1.5 z-score.

As for TAAAGGAGGAACTGACACCA, the binding signal is 0.554 z-score.

ATAAAAAGGAAATGAAAGTA: the binding signal was 11 z-score.

As to CTGGCAGGGAACTGACACTC, the binding signal is -0.0444 z-score.

With GTTAAGAGGAACTGAAAGCT, the binding signal amounted to 2.53 z-score.

Turning to GTGGTAGGGAAGTGAAACTG, the binding signal is 46.7 z-score.

On to GATAAGAGGAACTGAAAGCA, for which the binding signal amounted to 8.12 z-score.

Consider GATAAGAGGATCTGAAAGCT, for which the binding signal came to 0.435 z-score.

On to TGGCAGAGGAAGTCAAACTA, for which the binding signal is -0.27 z-score.

Turning to TGAAAGAGGAACCGAAACTC, the binding signal turned out to be 83.3 z-score.

Turning to AAGAAAGAGAACTGAAAGTA, the binding signal amounted to 7.5 z-score.

For AACATGAGGAACTGAAACTG, the binding signal turned out to be 32 z-score.

With TGGCGGAGGAAGTGAAACTA, the binding signal stood at 70.1 z-score.

In the case of TAAAGGAGGTACTGAAACCA, the binding signal came to 7.38 z-score.

TGAGAGGTGAAGTGAAACCT: the binding signal stood at 14 z-score.

Turning to TTTTTGAGGAACTGAAACTC, the binding signal turned out to be 45.5 z-score.

Consider TGGCAGAGGAAATGAAACTA, for which the binding signal came to 31 z-score.

In the case of TGGCAGAGGAAGTGCAACTA, the binding signal came to 1.16 z-score.

As to TAAGAGGAGAAGTGAAACCT, the binding signal turned out to be 22.5 z-score.

Turning to AAAAAAAGGAAATGAGAGTA, the binding signal is 0.748 z-score.

As for AAAAAGAGGAAGAGAAACTG, the binding signal was 18 z-score.

On to TGGCCGAGGAAGTGAAACTA, for which the binding signal was 52.1 z-score.

For the sequence GTGCAAAGGAAGTGAAACTA, the binding signal came out at 52.9 z-score.

On to GATAAGAGGAACTGTAAGCT, for which the binding signal stood at 0.173 z-score.

As to AAAAGGAGGAAGCGAAACTC, the binding signal is 62 z-score.

With TAAAGCAGGAACTGAAACCA, the binding signal stood at 24 z-score.

Consider CTGCCAGGGAGGTGAAAGCA, for which the binding signal was found to be 1.21 z-score.

For the sequence TGGCAGAAGAAGTGAAACTA, the binding signal was 38.9 z-score.

For CAAAAGAGGAAGAGAAACTG, the binding signal was found to be 13.9 z-score.

As to AGAAAGTGGAAGTGAAACTG, the binding signal is 61 z-score.

For the sequence TGAGAGGAGAAGTGAGACCT, the binding signal was 1.47 z-score.

Regarding AAAAAAGGGAAATGAAAGTA, the binding signal worked out at 26.9 z-score.

In the case of AAAAAAAGGAAATGAAACTA, the binding signal is 41.2 z-score.

As for TGATACAGGAAGTGAAACCA, the binding signal came out at 67.2 z-score.
